{"source": "paper PMC7819943", "about": "“Rice protein-binding microarrays: a tool to detect cis-acting elements near promoter regions in rice”", "note": "The other results are listed elsewhere or left out."}
{"target": "T1, OsWOX13 (Oryza sativa, UniProt Q5QMM3 1-267)", "T1 sequence": "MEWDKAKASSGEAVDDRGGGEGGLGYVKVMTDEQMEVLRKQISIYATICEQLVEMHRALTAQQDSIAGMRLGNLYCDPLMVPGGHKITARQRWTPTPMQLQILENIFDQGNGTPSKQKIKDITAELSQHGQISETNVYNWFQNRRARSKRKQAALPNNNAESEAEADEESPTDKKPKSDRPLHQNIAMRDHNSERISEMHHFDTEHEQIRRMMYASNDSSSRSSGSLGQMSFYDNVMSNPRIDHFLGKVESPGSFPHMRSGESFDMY", "test": "protein-binding microarray (RPBM); PBS, 2% BSA, 51.3 ng/ul salmon testes DNA, 50 uM zinc acetate, 200 nM TF, 25 C, 1 h; high values mean tight binding", "conditions": "protein: recombinant; tags: N-terminal polyhistidine and DsRed monomer fusion (pET32a); label: CyDye5-dUTP incorporated in the synthesized complementary strand; 3' TTTTT single-stranded linker to array surface; dsDNA, one strand shown", "method_in_brief": "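For the binding signal, per-feature fluorescence intensity was read in arbitrary units on an Axon 4000B scanner. Before scanning, a 2% BSA-blocked custom Agilent array made double-stranded with Cy5-dUTP was washed after 1 h at 25 °C with 200 nM protein and 50 µM zinc acetate. The proteins were Ni–NTA-purified transcription factors with N-terminal polyhistidine and DsRed fusions, expressed in E. coli BL21-CodonPlus.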"}
{"sequence": "GAGAGATTGAGTTTTAAATTGAACGTTATGGAAGGATGGACGGAGTCACCTAGTGCAG", "binding signal": "33700 fluorescence intensity (a.u.)"}
{"sequence": "ATAGTCAATTTAATACTAGTTAAATCATACAATAGTTACCCGGAGTCACCTAGTGCAG", "binding signal": "12800 fluorescence intensity (a.u.)"}
{"sequence": "GCTTCCTTTGATTTGTAGAGAAAACGAAGAAAGCAATAGGCGGAGTCACCTAGTGCAG", "binding signal": "8870 fluorescence intensity (a.u.)"}
{"sequence": "TGGCTTTTATGATTGCCACACCTCAACCGGAATATATGCTCGGAGTCACCTAGTGCAG", "binding signal": "9330 fluorescence intensity (a.u.)"}
{"sequence": "TGAAAATTTCAATCCTTTCTTGTCAGCATAGTTCTTTCTGCGGAGTCACCTAGTGCAG", "binding signal": "12400 fluorescence intensity (a.u.)"}
{"sequence": "TCAAACTTAATTTTGAAGTTTATTTTAAGATATTTTCAACCGGAGTCACCTAGTGCAG", "binding signal": "5390 fluorescence intensity (a.u.)"}
{"sequence": "CACTATAAATTATCACCACCTCATTCCCGCCATGTCTCACCGGAGTCACCTAGTGCAG", "binding signal": "10200 fluorescence intensity (a.u.)"}
{"sequence": "AATTTTAATTATCTCTAAATTGTATTCCTATATGGACTCTCGGAGTCACCTAGTGCAG", "binding signal": "24700 fluorescence intensity (a.u.)"}
{"sequence": "TTGAACTGCCCATAATCATTTATAAATTTAAACTTCTTGACGGAGTCACCTAGTGCAG", "binding signal": "4440 fluorescence intensity (a.u.)"}
{"sequence": "CCCCGGCTGATTAATCTGCCACTTATTACTATCACTGATTCGGAGTCACCTAGTGCAG", "binding signal": "13200 fluorescence intensity (a.u.)"}
{"sequence": "TTGACAGAATGACAGGCTTTATCAGCCACACATATACATACGGAGTCACCTAGTGCAG", "binding signal": "12400 fluorescence intensity (a.u.)"}
{"sequence": "CCAGTTGAATCAATACATTGATTATTACTACCTCCATATTCGGAGTCACCTAGTGCAG", "binding signal": "5530 fluorescence intensity (a.u.)"}
{"sequence": "ATAAACCGCACCCAAAATTTAAATTTTAAAGCATAGTTATCGGAGTCACCTAGTGCAG", "binding signal": "3520 fluorescence intensity (a.u.)"}
{"sequence": "ATAATAGATGAGATGAGAAGAGATACCATCTCTAGTAATCCGGAGTCACCTAGTGCAG", "binding signal": "9020 fluorescence intensity (a.u.)"}
{"sequence": "AGCCTAATTAATTTGTCATTAGCAAATGTTTACTGTAGCACGGAGTCACCTAGTGCAG", "binding signal": "57000 fluorescence intensity (a.u.)"}
{"sequence": "TCCATGATTTGTCACGTGGGTGTTCAGTGCTATAGCTCCTCGGAGTCACCTAGTGCAG", "binding signal": "27600 fluorescence intensity (a.u.)"}
{"sequence": "AACAAATGATGAAATTGCTAACACCTAGATGGCCATGTTCCGGAGTCACCTAGTGCAG", "binding signal": "8590 fluorescence intensity (a.u.)"}
{"sequence": "GAACATTTCTTCTCTCCAATCAAATGTACGGACGGCTAAACGGAGTCACCTAGTGCAG", "binding signal": "3260 fluorescence intensity (a.u.)"}
{"sequence": "CCATGTTTACAAAATAAATTAACATAGCACATAATTTCATCGGAGTCACCTAGTGCAG", "binding signal": "4240 fluorescence intensity (a.u.)"}
{"sequence": "TGCCTAATTGGTTTCCCAGCCTTGACGAGCTTCCTCGAGTCGGAGTCACCTAGTGCAG", "binding signal": "42600 fluorescence intensity (a.u.)"}
{"sequence": "TTCTGATTAACTGTCTGCTACTCTTGAAAGCTGCACTCGACGGAGTCACCTAGTGCAG", "binding signal": "34200 fluorescence intensity (a.u.)"}
{"sequence": "TTGCCATCATAATCAATTGTGATCCTTCTCTGTATCCCTACGGAGTCACCTAGTGCAG", "binding signal": "4630 fluorescence intensity (a.u.)"}
{"sequence": "TTAAATTTAAATTTGAGATTGATTTTGAGATATTTTCAACCGGAGTCACCTAGTGCAG", "binding signal": "38200 fluorescence intensity (a.u.)"}
{"sequence": "GTGATTAATAGGTATCAGAAAAGAGCAGCCAAATTTGCACCGGAGTCACCTAGTGCAG", "binding signal": "19200 fluorescence intensity (a.u.)"}
{"sequence": "CCAAATTAACATGTAGTAGTAGACCGGCTTCGCCCTCGCCCGGAGTCACCTAGTGCAG", "binding signal": "33900 fluorescence intensity (a.u.)"}
{"sequence": "ATTAATTAATAATTACAAGCTGATCCACGTCGCCGGCCTACGGAGTCACCTAGTGCAG", "binding signal": "42000 fluorescence intensity (a.u.)"}
{"sequence": "TCACGCTTACTCGAGTCATCAATCATCTACTACACCCCACCGGAGTCACCTAGTGCAG", "binding signal": "5350 fluorescence intensity (a.u.)"}
{"sequence": "ATTAATCTATAATTAGAGAATGTTTACTATAGCATCACATCGGAGTCACCTAGTGCAG", "binding signal": "23500 fluorescence intensity (a.u.)"}
{"sequence": "TAACAATCATTTGAACCATACGCTATTTCGCTGCTGTATGCGGAGTCACCTAGTGCAG", "binding signal": "3930 fluorescence intensity (a.u.)"}
{"sequence": "TGCAGAGATTGAATAATTTGATGTTCCATATTGTAACTACCGGAGTCACCTAGTGCAG", "binding signal": "35200 fluorescence intensity (a.u.)"}
{"sequence": "GCGAAATTACAATGAAATCCTCCCACCTCAGAAACTGATCCGGAGTCACCTAGTGCAG", "binding signal": "3830 fluorescence intensity (a.u.)"}
{"sequence": "CCCACCTAATTTCCTTCTGTTTCAAGAAACATTATGGTCACGGAGTCACCTAGTGCAG", "binding signal": "6230 fluorescence intensity (a.u.)"}
{"sequence": "AACATAATTAGGCTCAAAAGATTCGTCTCACAATTTACATCGGAGTCACCTAGTGCAG", "binding signal": "11700 fluorescence intensity (a.u.)"}
{"sequence": "ACATTAATGATTAGAGACCATATTGTCATCAACTATTGTACGGAGTCACCTAGTGCAG", "binding signal": "30800 fluorescence intensity (a.u.)"}
{"sequence": "GGCGTAATTAGGCTTAAAAGATTCGTCAGGCAATTTACCCCGGAGTCACCTAGTGCAG", "binding signal": "24600 fluorescence intensity (a.u.)"}
{"sequence": "GAATTGGATTGAGAATTCTTCTCTTCTCTCCTTTTCCGACCGGAGTCACCTAGTGCAG", "binding signal": "9270 fluorescence intensity (a.u.)"}
{"sequence": "AGGGATTTGTCCATGATTGTATACAACAGACTCTGTTTACCGGAGTCACCTAGTGCAG", "binding signal": "11600 fluorescence intensity (a.u.)"}
{"sequence": "CTCTTAAATTTACGCTGTGGCTGATACTCCCTCTGTCCCGCGGAGTCACCTAGTGCAG", "binding signal": "5940 fluorescence intensity (a.u.)"}
{"sequence": "CTTAACAAGTACTAAAATTACTAATTGTCTAGTGGCCATTCGGAGTCACCTAGTGCAG", "binding signal": "12300 fluorescence intensity (a.u.)"}
{"sequence": "AGAGTTAGCCAATCATAGTGAAGAAAGCAAACCCTGATGACGGAGTCACCTAGTGCAG", "binding signal": "3730 fluorescence intensity (a.u.)"}
{"sequence": "TTTTAATTTTACTATAATAAATATACTAGGCTACTAGACTCGGAGTCACCTAGTGCAG", "binding signal": "10800 fluorescence intensity (a.u.)"}
{"sequence": "CTAAACTAAACAGAGAGGGGTGAGTATCCTCTTCCATGCGCGGAGTCACCTAGTGCAG", "binding signal": "11300 fluorescence intensity (a.u.)"}
